The target in this experiment is S0 spike (and furin)+).

B1: 6.30-FuG1: spike-RBD targeting antibody 6.30 converted into FuG1; SEQ ID NOs: 20 and 27 (protein)
light: DIQMTQSPSSLSASVGDRVTITCRASQNISSYLNWYQQEAGKAPKLLIYAASSLQSGVPSRFSGSGSGTDFTLTISSLQPEDFATYYCQQSYSTPRTFGQGTKVDIKRTVAAPSVFIFPPSDEQLKSGTASVVCLLNNFYPREAKVQWKVDNALQSGNSQESVTEQDSKDSTYSLSSTLTLSKADYEKHKVYACEVTHQGLSSPVTKSFNRGEC
heavy: QVQLVQSGAEVKKPGSSVKVSCKASGGTFSIYAITWVRQAPGQGLEWMGGIIPIIGTANYAQKFQGRVTITADKSTSTAYMELSSLRSEDTAVYYCARDFRYCSSTRCYFWFDPWGQGTLVTVSSASTKGPSVFPLAPSSKSTSGGTAALGCLVKDYFPEPVTVSWNSGALTSGVHTFPAVLQSSGLYSLSSVVTVPSSSLGTQTYICNVNHKPSNTKVDKKVEPKSCDKTHTCPPCPAPEAAGGPSVFLFPPKPKDTLMISRTPEVTCVVVDVSHEDPEVKFNWYVDGVEVHNAKTKPREEQYNSTYRVVSVLTVLHQDWLNGKEYKCKVSNKALPAPIEKTISKAKGQPREPQVYTLPPSREEMTKNQVSLTCLVKGFYPSDIAVEWESNGQPENNYKTTPPVLDSDGSFFLYSKLTVDKSRWQQGNVFSCSVMHEALHNHYTQKSLSLSLGKEGGGSGRERKARGGCPGS
For the molecule B1, the “pull-down of S0 spike and furin” value is listed as “pull-down detectable S0 spike (and furin) selectively from spike transfected HEK-293 cells”.

Source of the values: US20250179151A1, “SPIKE FURIN CLEAVAGE IS A SARS-COV-2 TARGETING STRATEGY TO BREAK THE CHAIN OF INFECTION CYCLE” (University of Virginia Patent Foundation, priority 2022, published 2025).
